# From the supplement of paper PMC10986608
# The other results are listed elsewhere or left out. Many values rest on one well or one pass, so single values are uncertain.
# System: Candida albicans DPL-15
# Assay: growth (OD600) after compound treatment (apparently relative to screen median) (relative growth (fraction; screen median 1.02)); DPL-15 is a caspofungin-resistant clinical isolate; higher = more fungal growth (less antifungal activity)
# Details: 25 µM; RPMI 1640; 48 h; 30 °C
row,SMILES,growth
1,COC(=O)C/C=C/[C@@H](C)[C@H](NC(=O)[C@H](N)C(C)C)c1ccccc1,1.09
2,CC/C=C\CCOS(=O)(=O)NC(C)C,0.782
3,COC(=O)Cc1nnn2c1[C@H](C)[C@@H](OC)c1cccc(Cl)c1-2,1.03
4,CN(Cc1ccncc1)CC1CCCN(CCc2ccccc2)C1 (configuration not stated),0.893
5,Cc1ccc(S(=O)(=O)N2CCCc3nc(C)c(C)cc32)cc1,0.914
6,COC(=O)Cc1nnn2c1[C@H](C)[C@H](c1ccccc1Br)OC[C@@H]2c1ccccc1,0.928
7,COC(=O)C1=C(C)N(Cc2ccc(F)cc2)C(=S)NC1c1ccc(Br)cc1 (configuration not stated),0.931
8,CCCOS(=O)(=O)NC(C)(C)C,1.03
9,COc1ccc(N2C(=O)C3=C(C(c4ccccc4)=NCCN3)C2c2ccc(F)cc2)cc1 (configuration not stated),1.03
10,CC(C)[C@H]1CC[C@H](C)C[C@@H]1OS(=O)(=O)Nc1cncnc1,1.15
11,COC(=O)[C@H]1[C@H](C(=O)OC)[C@@H](c2ccc(OC)c(OC)c2OC)[C@@H]1c1ccc(OC)c(OC)c1OC,0.916
12,CO[C@@H]1[C@H](O)CC[C@]2(O)CN(Cc3cccc4ccccc34)[C@](C)([C@H](O)CC=C(C)C)[C@@H]12,1.13
13,COC(=O)C1=C(CCl)NC(=O)N(C(C)=O)C1c1cccc(C#N)c1 (configuration not stated),1.11
14,COC(=O)CCCn1c(-c2ccccc2)nc2c(c1=O)[C@H](c1ccccc1)[C@]1(c3ccc(OC)cc3)Oc3cc(OC)cc(OC)c3[C@]21O,1.11
15,CC1=C[C@H](COc2ccc(Br)cc2)O[C@]2(C1)C(=O)Nc1cc(F)ccc12,0.863
16,C=CCN1C(=O)C2=C(C(c3ccccc3)=NCCN2)C1c1ccc(C)cc1 (configuration not stated),1.06
17,c1ccc(CCCc2cc3ccccc3c(CCCc3ccccc3)n2)cc1,1.08
18,C[C@H]1/C=C/CC(=O)OCCC(Oc2ccccc2)C(=O)N[C@@H](Cc2c[nH]c3ccccc23)C(=O)N[C@H]1c1ccccc1 (some centres not stated),0.896
19,COC(=O)C1=C(C)N(Cc2ccc(Cl)cc2)C(=S)NC1c1ccccc1 (configuration not stated),0.896
20,COc1ccc2c(c1)[C@@H](NC(=O)Nc1ccccc1)[C@H](C)[C@H]2c1ccccc1,1.18
21,O=S(=O)(N1CCc2nc(-c3ccccc3)c(-c3ccccc3)cc2C1)C(F)(F)F,1.21
22,COc1cc2c(cc1OC)[C@@H]1O[C@](CCCN3C(=O)c4ccccc4C3=O)(C2)OC2=C1C(=O)CC(C)(C)C2,1.01
